The record followed here is PMC10726135.

The list shows a part of the results. At the low end of the ranking the order means little. Measured with an extract: partners may take part in the binding.

The target in the assay is T1, HNF4alpha2 (COS-7 nuclear extract) (UniProt P41235).
T1 sequence: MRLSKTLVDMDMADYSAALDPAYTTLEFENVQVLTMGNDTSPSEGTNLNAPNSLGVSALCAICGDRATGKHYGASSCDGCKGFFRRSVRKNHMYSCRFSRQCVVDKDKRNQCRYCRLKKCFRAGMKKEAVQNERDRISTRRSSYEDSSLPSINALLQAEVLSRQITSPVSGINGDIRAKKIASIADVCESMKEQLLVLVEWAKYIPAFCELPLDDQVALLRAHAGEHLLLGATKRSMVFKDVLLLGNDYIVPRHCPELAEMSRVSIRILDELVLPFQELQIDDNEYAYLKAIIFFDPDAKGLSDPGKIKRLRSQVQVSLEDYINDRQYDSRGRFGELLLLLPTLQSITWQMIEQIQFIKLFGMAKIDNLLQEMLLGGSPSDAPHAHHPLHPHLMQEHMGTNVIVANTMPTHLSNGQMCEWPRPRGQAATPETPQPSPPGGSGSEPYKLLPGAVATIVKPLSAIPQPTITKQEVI
Description: protein-binding microarray. The conditions noted are these: COS-7 nuclear extract on double-stranded Agilent 4x180k PBM; binding buffer, salt, pH and temperature not given; high values mean tight binding; double strand, one strand shown; sequences stand for … in …GCCTAGGGAGATTAGAGTATCGGTCGA
As for AGGCCCATCTTCTTATCTGAGGTTTGACTT, the binding signal (log2 normalized intensity) stood at 0.832.

Take AGGTCGCCGGGAAAACCCGGAGCGGAGCAT: the binding signal (log2 normalized intensity) was -1.14.

Consider CTGAAGACAGTCTCCAAGGTTATTATATTG, for which the binding signal (log2 normalized intensity) is 1.46.

Regarding AACAGTCTGCACATTTATTGGACTAGGCAC, the binding signal (log2 normalized intensity) was 1.23.

For the sequence AGGAACTTACGAAGATAAATCAGAAGAAAA, the binding signal (log2 normalized intensity) is -1.08.

Turning to CCATAAATACACAATCTGAAGTCCCCTGTG, the binding signal (log2 normalized intensity) stood at 2.11.

On to ATATAAGCTATTACTTGATTTAATACGATA, for which the binding signal (log2 normalized intensity) came out at 0.407.

TTTACGAAGTGTTTGTCAAGCTCAATGCAA: the binding signal (log2 normalized intensity) was -0.424.

ATAACCACCATTAGACTCTGCCCTCCTTAA: the binding signal (log2 normalized intensity) was 2.32.

CTGCTTGATAGCCATCTGGTGGACTTTGCT: the binding signal (log2 normalized intensity) turned out to be 5.26.

With TCCCTTCCCCCCTCCTCATTGAGAGTTTTA, the binding signal (log2 normalized intensity) turned out to be 4.2.

As for CAGTGACAAATGTCAGACAAACAGACTTCA, the binding signal (log2 normalized intensity) was -1.11.

Turning to GAACGAATACTCAAGGGGAAGAAATCTAAG, the binding signal (log2 normalized intensity) is -1.2.

Regarding GGCCAGGATTAACCACAGAAATGCCGCTAA, the binding signal (log2 normalized intensity) was -1.12.

For TGAGTGACCTTTCACCCGCGCCCAGCGGTT, the binding signal (log2 normalized intensity) turned out to be 3.91.

Regarding CCGGGAGCGCCGAGCACGTCGAGCAGGCCC, the binding signal (log2 normalized intensity) is -1.07.

TGAATCAATAAGCCAGTGAACCTTTGTCCC: the binding signal (log2 normalized intensity) was 4.79.

For the sequence AGGAATGCTGAGGAGGGCCTGGGGGACAGC, the binding signal (log2 normalized intensity) was -1.09.

With TTCATCAGATTAGAAGGCAGAGAAAGATAG, the binding signal (log2 normalized intensity) was -1.11.

In the case of CCTCCCCTCCCCCCAGTTCCCTGGGTCGCC, the binding signal (log2 normalized intensity) came to 4.3.

With GTTAGCATAGCCTATCTGGTGCAGTCCAAG, the binding signal (log2 normalized intensity) was -0.518.

On to TGAAACTCCACTACATTAGCAGCGCCACCA, for which the binding signal (log2 normalized intensity) is -1.08.

Regarding CTACATCAAGAGGATTACATAACCACCACT, the binding signal (log2 normalized intensity) is -1.06.

On to ACTCTGAGGCTCCATCATGCCTGGCAGCCT, for which the binding signal (log2 normalized intensity) was -1.09.

Regarding CTTGACCTTTGATCCAGGCTCAGTGGGCGT, the binding signal (log2 normalized intensity) turned out to be 4.91.

As to CCTGATGACAACTGAATGTGACCTTTTGGA, the binding signal (log2 normalized intensity) turned out to be 5.25.

On to TTCTTCTGGTTCTGCAAGGCAACTGACCTT, for which the binding signal (log2 normalized intensity) is 3.64.

With ATGTGACCTTTTGGACCACAGAGTGACCTG, the binding signal (log2 normalized intensity) came out at 5.16.

Turning to CTGATAAATCCCGAGCCAGAGCCAAAGGGC, the binding signal (log2 normalized intensity) was -1.06.

TCTGAGTAGGAAAGACTTGCTCATTGATGA: the binding signal (log2 normalized intensity) is -0.647.

As for AGTTTGACTCCAAAGGGCTGGAGACTGAGT, the binding signal (log2 normalized intensity) is -0.509.

For ATAAAGGAAGCTGGGCACAAATTGGAGAGC, the binding signal (log2 normalized intensity) is -1.19.

On to TGATCCAGGGCAAAGGTCATAATTTGATCC, for which the binding signal (log2 normalized intensity) is 6.34.

Regarding GGAAATGCCTAGGATACCTAGTAGGCACAA, the binding signal (log2 normalized intensity) was -1.24.

In the case of TTGACCTTTGGCCAAGGGCAGTGTTTGCCC, the binding signal (log2 normalized intensity) came out at 5.35.

In the case of GATGCAGGTCGCCGGGAAAACCCGGAGCGG, the binding signal (log2 normalized intensity) was -1.03.

On to TGACCCTATCCACATTCAGCCCACTTCCTA, for which the binding signal (log2 normalized intensity) came to 1.16.

In the case of GTTCCCTGGGTCGCCAAGCCGGAGGCTTTG, the binding signal (log2 normalized intensity) was -0.863.

Turning to CTGACTGGCCTGGGAACCCCAAGTTATCTT, the binding signal (log2 normalized intensity) was -1.13.

For TCACCTGTAGGGATGTGGGACTTAATCCTT, the binding signal (log2 normalized intensity) was 0.695.

Turning to CCAAATTCCTCCCACTCTGACATCCCCCTT, the binding signal (log2 normalized intensity) stood at 4.52.

As for GGGAAACAGCGAGAGTCCTCTTGGTTTATG, the binding signal (log2 normalized intensity) amounted to 0.679.

As for ATGAATGTCACACACAGACTTGGGTTCAAA, the binding signal (log2 normalized intensity) came out at 1.21.

For the sequence AATTCTATGAGTAGGTACAAATTCCAAGGA, the binding signal (log2 normalized intensity) came to 1.93.

ATGCGATACTTGACCTGCAATGAAAGTCCA: the binding signal (log2 normalized intensity) turned out to be 2.44.

For the sequence ACTGCAGGGGGGTGGGCACCCCTGCCCCCA, the binding signal (log2 normalized intensity) amounted to 2.82.

GTTAGCAACCGGAAGTGGCTAGAGGTCGCG: the binding signal (log2 normalized intensity) is -0.0731.

As to ACTCCTTTGCTTATCTGATAAGTCCATACC, the binding signal (log2 normalized intensity) was 1.53.

AGTCCAGGGTAGGAGCCTCTGATTTGCTGA: the binding signal (log2 normalized intensity) was -1.14.

With AGTCCAGGCAGGACATCAAAGAACAAGTAT, the binding signal (log2 normalized intensity) was -1.19.

With TGACAAGCAAACACAAACTATGACCTTTGA, the binding signal (log2 normalized intensity) was determined as 8.49.

In the case of ATAAGGCCCGGCTGATGGGACCAAAGGTGA, the binding signal (log2 normalized intensity) stood at 2.39.

For GCATAGGGAGAATGATAAGATATATGACTC, the binding signal (log2 normalized intensity) is -0.707.

CAAAGGTCAACAAACGCCCCTTGGATGAAT: the binding signal (log2 normalized intensity) amounted to 3.25.

As for TGTACCTGGGGCAAACATCAATTTAGACCG, the binding signal (log2 normalized intensity) is -0.61.

GAGCGCTTTGAGGCCTATGGCGAAAAAGGA: the binding signal (log2 normalized intensity) was -0.829.

In the case of GTCCCCTGTGCTTTGGCCAAATAATAGCAT, the binding signal (log2 normalized intensity) amounted to 1.45.

As to GGCTCTCCCCACTTACTTCCTGATAACCTG, the binding signal (log2 normalized intensity) turned out to be 0.86.

For CTAACCTTCGTCCTTGCCCCTGGCTGGGCC, the binding signal (log2 normalized intensity) was 0.692.

Take CTTATCTAGATAAGTTGGTTTACTTATGTC: the binding signal (log2 normalized intensity) stood at 0.989.

On to TCAAAAACCCATGGGAAGCTTCACAAAGGG, for which the binding signal (log2 normalized intensity) was -1.19.

For CAGCTCTGGGCCCCTCGGCCGCTCCCTCCC, the binding signal (log2 normalized intensity) came out at 1.73.

Consider AAGCTTCACAAAGGGCTGAGGTTAAAGTCC, for which the binding signal (log2 normalized intensity) stood at 6.22.

Take GCAAAAATGCAGGCAATGAATAGAACAAAT: the binding signal (log2 normalized intensity) was -1.02.

For the sequence GTGATAACGACATTCTTTGGATATGAAGGT, the binding signal (log2 normalized intensity) turned out to be 1.19.

Regarding TGCTTAGCGGCCTTCCCCTTTTTCTGTAAA, the binding signal (log2 normalized intensity) came out at 1.56.

TTCAACTGGAGGATAAAGTTCAAGTAGATA: the binding signal (log2 normalized intensity) worked out at 1.92.

AGGCCTAACTGGCTTTGTCTGCTCAGGAAT: the binding signal (log2 normalized intensity) is -1.13.

Regarding GACACACATGAGCTAGTGCTAAAGGTCATA, the binding signal (log2 normalized intensity) came to 5.47.

For the sequence TAACCACATTCTTTCTGCATCGCAGTCGCC, the binding signal (log2 normalized intensity) was -0.939.

Consider AGGCCATCTGCTGGAGAATCCTCTCTTGCT, for which the binding signal (log2 normalized intensity) was -1.05.

As for AAAGAGCAACTACTCTCTCTTCTGGAGGAG, the binding signal (log2 normalized intensity) was -1.07.

For TGGGTTGGAACCCCGTTTCTCCTACCTCAT, the binding signal (log2 normalized intensity) was -1.08.
